Laboratory results reported in the supplement of paper PMC4604168 (melanoma cell lines).
This is one part of the list. Single values are uncertain, as repeats are few or missing.

Tested on: COLO800
Assay: cell count relative to DMSO control; melanoma cells; higher = more viable cells
Conditions: library dose: low library concentration; 72 h
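Further: cell number obtained by counting DAPI-stained nuclei in high-throughput microscope images with image analysis software, screen run in 1,536-well plates.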

| SMILES | cell count |
| --- | --- |
| CCCCCCCCc1ccc(CCC(N)(CO)CO)cc1 [fingolimod] + O=C(O)c1ccc(-c2c[nH]c3ncc(-c4ccccc4)cc23)cc1C1CCCC1 [GSK650394] (first compound 2 µM, partner dose 0.16 µM) | 85.4% |
| Cc1ccc(NC(=O)c2cccc(N(C)C)c2)cc1NC(=O)c1ccc(O)cc1 + OCCn1cc(-c2cnc3nnn(Cc4ccc5ncccc5c4)c3n2)cn1 [PF04217903] (first compound 2 µM, partner dose 1 µM) | 68.2% |
| NC(=O)c1ccc(N(C(N)=O)c2c(F)cccc2F)nc1-c1ccc(F)cc1F + C=CCn1c(=O)c2cnc(Nc3ccc(N4CCN(C)CC4)cc3)nc2n1-c1cccc(C(C)(C)O)n1 [MK1775] (first compound 0.4 µM, partner dose 0.02 µM) | 115% |
| CC(C)(C)c1cnc(CSc2cnc(NC(=O)C3CCNCC3)s2)o1 + CN(NC(=O)CC(=O)NN(C)C(=S)c1ccccc1)C(=S)c1ccccc1 [STA4783] (first compound 0.01 µM, partner dose 0.006 µM) | 90.8% |
| Cc1ccc(NC(=O)c2cccc(N(C)C)c2)cc1NC(=O)c1ccc(O)cc1 + Cn1cncc1[C@@](N)(c1ccc(Cl)cc1)c1ccc2c(c1)c(-c1cccc(Cl)c1)cc(=O)n2C [tipifarnib] (first compound 2 µM, partner dose 0.01 µM) | 130% |
| Cc1ccc(NC(=O)c2cccc(N(C)C)c2)cc1NC(=O)c1ccc(O)cc1 + NCC(=O)Nc1ccc(-n2nc(C(F)(F)F)cc2-c2ccc3c(ccc4ccccc43)c2)cc1 [OSU03012] (first compound 2 µM, partner dose 1 µM) | 66.9% |
| CCCCCCCCc1ccc(CCC(N)(CO)CO)cc1 [fingolimod] + CN(NC(=O)CC(=O)NN(C)C(=S)c1ccccc1)C(=S)c1ccccc1 [STA4783] (first compound 2 µM, partner dose 0.006 µM) | 68.3% |
| NC(=O)c1ccc(N(C(N)=O)c2c(F)cccc2F)nc1-c1ccc(F)cc1F + COc1cc2c(Oc3ccc4[nH]c(C)cc4c3F)ncnc2cc1OCCCN1CCCC1 [cediranib] (first compound 0.4 µM, partner dose 0.4 µM) | 69.7% |
| NC(=O)c1ccc(N(C(N)=O)c2c(F)cccc2F)nc1-c1ccc(F)cc1F + O=C(Nc1cccc(Cl)c1)Nc1ncc(CCNc2ncnc3ccsc23)s1 [SNS314] (first compound 0.4 µM, partner dose 0.0008 µM) | 109% |
| CC(C)(C)c1cnc(CSc2cnc(NC(=O)C3CCNCC3)s2)o1 + NC(=O)Nc1cc(-c2cccc(F)c2)sc1C(=O)N[C@H]1CCCNC1 [AZD7762] (first compound 0.01 µM, partner dose 0.02 µM) | 72.7% |
| CN(NC(=O)CC(=O)NN(C)C(=S)c1ccccc1)C(=S)c1ccccc1 + COc1cc2c(Oc3ccc4[nH]c(C)cc4c3F)ncnc2cc1OCCCN1CCCC1 [cediranib] (first compound 0.006 µM, partner dose 0.4 µM) | 42.5% |
| CCCCCCCCc1ccc(CCC(N)(CO)CO)cc1 [fingolimod] + C[C@@H]1CCN(C(=O)CC#N)C[C@@H]1N(C)c1ncnc2[nH]ccc12 [CP690550] (first compound 2 µM, partner dose 1 µM) | 118% |
| CCCCCCCCc1ccc(CCC(N)(CO)CO)cc1 [fingolimod] + COc1cc2c(Oc3ccc4[nH]c(C)cc4c3F)ncnc2cc1OCCCN1CCCC1 [cediranib] (first compound 2 µM, partner dose 0.4 µM) | 83% |
| CC(C)(C)c1cnc(CSc2cnc(NC(=O)C3CCNCC3)s2)o1 + NCC(=O)Nc1ccc(-n2nc(C(F)(F)F)cc2-c2ccc3c(ccc4ccccc43)c2)cc1 [OSU03012] (first compound 0.01 µM, partner dose 1 µM) | 93.2% |
| CCCCCCCCc1ccc(CCC(N)(CO)CO)cc1 [fingolimod] + NCC(=O)Nc1ccc(-n2nc(C(F)(F)F)cc2-c2ccc3c(ccc4ccccc43)c2)cc1 [OSU03012] (first compound 2 µM, partner dose 1 µM) | 51.2% |
| CCCCCCCCc1ccc(CCC(N)(CO)CO)cc1 [fingolimod] + NC(=O)Nc1cc(-c2cccc(F)c2)sc1C(=O)N[C@H]1CCCNC1 [AZD7762] (first compound 2 µM, partner dose 0.02 µM) | 72.5% |
